Results as given in the supplement of paper PMC11417369.
The list shows a part of the results.

The sequences below were run on PF3D7_0420300 AP2 domain 1 (GST-tagged) (assay: gcPBM binding intensity (ln(normalized median fluorescence intensity)); higher = stronger DNA binding).
Method in brief: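 GST-fused DNA-binding domains of P. falciparum, expressed in E. coli, were applied at about 25 μg on average for 1 h to an Agilent 4 × 180k array of primer-extended double-stranded 36-bp intergenic genomic probes and negative controls. Binding intensity is the highest Masliner-normalised natural-log median intensity across replicate spots of either probe orientation, measured with Alexa488 anti-GST antibody and a 488 nm scan.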

| Sequence | gcPBM binding intensity (ln) |
| --- | --- |
| TAGTTTTTATATAGCACACATATTGTGATTATGTAT [CACACA_site1196] | 9.33 |
| AAATTATGTGCCAATACACACACACCGATATATATA [CACACA_site8050] | 10 |
| TTCTTAGATTGTACAGTACACACCTTTAGAATGTTA [CACACA_site212] | 9.38 |
| AATTCATTTTACCCATGTACACAATTATATTTTATA [XGTACX_site4127] | 9.54 |
| TACTACCACGGACATGCATGCACATTATTACTCTAA [TGCATGCA_site313] | 9.51 |
| AAGAAAAAATGATGAATAGAGATCAAATCTATATAT [TGCATGCA_negctrl_site29] | 9.3 |
| ACATTCATAAAAAAAAGTACATTTTTTATAAAAGAA [XGTACX_site6197] | 9.15 |
| TATATTTAGAATACAATCTTAAAGTTGAAATAAAAT [CACACA_negctrl_site1292] | 8.93 |
| TTGTTAAATATTTATAAAATGAATTTAAAATGTACT [CACACA_negctrl_site665] | 8.86 |
| AACATAATAAAAAAACGTACATAATTTTATATACAT [XGTACX_site6602] | 9.41 |
| TTTATTATCTTATTCACACACATATATAAATATGTA [CACACA_site7369] | 9.54 |
| AAAAAAAAAACATACACACACACAAATATTTATATA [CACACA_site437] | 10.1 |
| ATATATCCAATATATATATATATATATATATATATA [CACACA_negctrl_site160] | 8.88 |
| AAAATAATCACATATTGTACAAAAAAATTTATTAAA [XGTACX_site3239] | 9.21 |
| ACATAATTTGATAATACACACAAATAATCTAAAATT [CACACA_site129] | 9.47 |
| TATATTAATATGAAAAGTACACATTCTATATATATA [XGTACX_site929] | 9.14 |
| AAAAAATGGATGATCACACACTTCATAAAAATTGCA [CACACA_site5256] | 9.33 |
| AAAAAAAAAAAAAAATGTACCCATATATAAATATAT [XGTACX_site4061] | 9.1 |
| TTTAATTATAAAACGTGTACATAATTATAATTACAT [XGTACX_site2206] | 9.16 |
| ATCATTTGCTCACGCACACACACATAAAAAGAAAAA [CACACA_site4349] | 9.84 |
| ATTATGTACAAAATGGTGCAATATTATACATATATA [GTGCAC_site9468] | 9.21 |
| AAAAATAGTATAAGTAGTACAACTGAAAAGTTATGT [XGTACX_site7488] | 9.5 |

| Sequence | gcPBM binding intensity (ln) |
| --- | --- |
| GACTTTTCAATTTTTCGTACGTATAAATTGTATACA [XGTACX_site1488] | 9.16 |
| TTTTGTTACTTTTATGTGCACTTATAAAACGAACTA [GTGCAC_site9551] | 9.16 |
| TTTTTATTGTTGTACTTATATTATTTTATTATTAAA [GTGCAC_negctrl_site200] | 9.45 |
| CTAATATATATCAATTGTACATATTGAATAAGAACA [XGTACX_site4541] | 9.18 |
| ATTCATTCATATGTTACACACACACCGACACATAAA [CACACA_site5749] | 10 |
| TTTTGAAGTAACAAATAAATAAATAAATATATAAAA [GTGCAC_negctrl_site517] | 9.17 |
| TATTAAACTGGACACACACACACACCCATATATAAA [CACACA_site4579] | 10.2 |
| CATACATACAAACACACACACACACCCATATATATA [CACACA_site2918] | 10.4 |
| TTTTTAACCAAACATCAAAACATATTTTTTTGTTAT [CACACA_negctrl_site385] | 8.89 |
| GTATACCTTTTGACATGTACGTATGTATATTTGGGT [XGTACX_site720] | 9.29 |
| ACTACATTATGTCATACATGCATACATACGTGGTTT [TGCATGCA_site732] | 9.39 |
| CATTAAAAGTATAATTGTACTTTTCATTTATATATT [XGTACX_site7536] | 9.24 |
| AGTAATTTAAGGAATACACACAAGAAAAAAATAAGA [CACACA_site6177] | 9.92 |
| TAATATATATATATATGTACATATATATTATGTATA [XGTACX_site4690] | 9.07 |
| TTCTCAAAATTAAAATAACAGATTAACGAACTAACG [CACACA_negctrl_site1720] | 9.2 |
| AGATTATTTAGAATGTGTACATATTACACATACATG [XGTACX_site8634] | 9.31 |
| TACTTTCAAAAGATCACACATATATATATATATATA [CACACA_site5630] | 9.11 |
| TAATAACATACAGACACACACGTAAAAGCACGTGTA [CACACA_site4299] | 9.63 |
| ATAAATAAATAAGTACATATATATATGTATATATAT [TGCATGCA_negctrl_site223] | 9.41 |
| ATGACATGTTCTAAATGTACATTTTTTAACCCTTTT [XGTACX_site1858] | 9.3 |
| TATGGTTACATTATATGTACTAAACGAATATTTTTA [XGTACX_site5694] | 9.04 |
| TATACAAGTATATAGGTGCATATATAAGTATATATT [GTGCAC_site9994] | 9.26 |

| Sequence | gcPBM binding intensity (ln) |
| --- | --- |
| TATGTTTTTACATATTGTACATATTCTTGTAATACG [XGTACX_site1179] | 9.23 |
| ATTATAATGTTAATGTGTACATATGATTCCTTAATT [XGTACX_site181] | 9.37 |
| TATGTGTGCAAAAACTGTACACATTAAAGGTATATA [XGTACX_site7627] | 9.62 |
| CATATAAAAGGACACACACACACATATAAATATGTA [CACACA_site6568] | 10 |
| TGCTATTTTATTTATTCTTTTATAAAAGTATAATAT [XGTACX_negctrl_site358] | 9.25 |
| ATTTTTATAGAATGAACACACATATTATAGCATTTA [CACACA_site6842] | 9.28 |
| ATAAAAAAAATTTGCACACCTTCAAAGTAATATATA [CACACA_site1584] | 9.4 |
| TAATTTTTTTTTTTTTTTTTTGTACTTCATTTTTAT [CACACA_negctrl_site1395] | 9.21 |
| AAAAAAAAAAAAAGTACATGCAATATGGATCTTAAA [TGCATGCA_site367] | 9.41 |
| CATAGATACATACACGCACACACATATATATATATA [CACACA_site13] | 9.87 |
| GTATTACCTTATTATTGTACTTTCATGATATATATG [XGTACX_site5382] | 9.69 |
| TTAATGAATGGACACACACACATATATATATATATT [CACACA_site5294] | 9.79 |
| TACACAAGAAAATTCACACACACACCCATATATATA [CACACA_site3879] | 10.1 |
| AACATACATGTATATAGTACATATTACATCTGATAC [XGTACX_site3649] | 9.34 |
| ATGTAATTATAAGATTAATATACATAATTATATGTA [GTGCAC_negctrl_site458] | 9.11 |
| AAAAGAAATATTTATACACACACACTAACATATATA [CACACA_site8580] | 10.1 |
| GTGAAAAAAAACATATGTACTTATACACTAATCTAT [XGTACX_site7600] | 9.31 |
| TTATCATTTTAATGGTGTACTCAATAAAAACTTTAA [XGTACX_site4595] | 8.87 |
| TTATATATAATTACATGTACGTAGTATTATTTAAAT [XGTACX_site3418] | 9.08 |
| TGGTAAAGGAGCAAGATGATAAATCTCCATAACTTT [CACACA_negctrl_site492] | 9.06 |
| ATGTCTATAATAAGAACACACATATATTTAATTTAA [CACACA_site7394] | 9.29 |
| CTATATTCGTTTAATAGTACATATATAACTAGACAA [XGTACX_site5770] | 9.2 |

| Sequence | gcPBM binding intensity (ln) |
| --- | --- |
| TATATATATATGTATACACACATACAAATATGTAAA [CACACA_site9238] | 9.28 |
| GTTGGTACCTTACTTTTACACACTTTTTTTTTTTTT [CACACA_site8441] | 9.84 |
| TATATATAAAAAAGCACACATACATACATACATAAT [CACACA_site890] | 9.71 |
| TTTTCACTTTTAAAAACATGCATACTTTATAAAATA [TGCATGCA_site967] | 8.93 |
| TACACAAGCGGACACACACACATATATATATATATA [CACACA_site4832] | 9.81 |
| AACATTCTAAAACACACACACACATATATATATATA [CACACA_site1052] | 10 |
| AAAAAAAAAAAACACACACACACATAAATATATATA [CACACA_site149] | 10.2 |
| TGTAAATTTGGCATCACACATAAATAAACATATAAA [CACACA_site4497] | 9.4 |
| TATTAACATATATAAAGTACATTAAACAACATTGTA [XGTACX_site7667] | 9.33 |
| AATAAATATAGATTCACACACAAACATATATAAATA [CACACA_site7814] | 9.8 |
| AAAAAAAAAATATATATATATATATATATATAATTT [GTGCAC_negctrl_site32] | 8.93 |
| AAGAAAAAAATTTATACAAGAATTTTTTATTATTAA [TGCATGCA_negctrl_site587] | 8.9 |
| TAATTGTACGCCAATACACACAGAATTAGAATGTAG [CACACA_site102] | 9.48 |
| ATAAATAAATGGTGTTGTACTCTATTATATATATAT [XGTACX_site7835] | 9.54 |
| TGTTAATTAAAGGACTGTACACTAATAATTCTATAA [XGTACX_site5195] | 9.13 |
| TCATATGTTTCATGTTGTACATTGAAAGTTTGGCTA [XGTACX_site3202] | 9.05 |
| GTTCTAATATATTGCACACGTAAAAATATAGGTAAT [CACACA_site886] | 9.5 |
| AAATATGTACATATTATATATATATAATATATATTG [TGCATGCA_negctrl_site438] | 9.22 |
| ATATTTATCTTTTTATGTACATATGCCCCTTTTCTG [XGTACX_site673] | 9.4 |
| GAGTTATTTCTTATTTAAGCATTCTACATATATATA [CACACA_negctrl_site239] | 9.46 |
| AAGAAAATTAAATTAACACACATAAATATATATATA [CACACA_site1664] | 9.65 |
